Measurements reported in PubChem BioAssay AID1963576 (National Center for Advancing Translational Sciences (NCATS), 2024).
Out of some 46,000 compounds screened, about 60 (0.1%) were called active. Another 3% or so got no clear call; they are omitted. The call rests on the fitted dose curve; in most records, active means well fitted inhibition curve with a large enough effect; inconclusive means small, poorly fitted or top-dose-only effect; inactive means no such curve, though single readings can be large or run the other way. The list shows a part of the results.

test: Primary qHTS assay for Inhibitors of ovarian cancer metastasis using an organotypic tumor microenvironment (TME) model.; further: nearly all actives have a fitted effect of over 65% in size;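 on activity change, negative = inhibition: plate controls were DMSO wells for no effect and tomatine positive control wells for full effect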; details: SKOV3ip1-GFP adhesion/invasion on 3D omental model, fluorescence; series mostly up to 45.8 µM; activity change, negative = inhibition: at the top concentration
Method in brief: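 Primary human omental fibroblast/mesothelial 3D culture pre-formed 48 h. SKOV3ip1-GFP cells added with compounds (0.36-46 umol/L), incubated 2 h RT/16 h 37 C, fixed; GFP cells quantified at 488/509 nm.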

Activity change, negative = inhibition, inactive:
CN(C)C(=O)[C@H](O)[C@H](Cc1ccccc1)NC(=O)c1cc2cc(Cl)ccc2[nH]1 9.73%
COc1cc(NC(=O)CSc2nc3ncccc3o2)cc(OC)c1 6.12%
CCn1cc2nc(SCC(=O)Nc3cc(OC)cc(OC)c3)n(Cc3ccc(Cl)cc3)c(=O)c2n1 1.77%
Cc1cc(C)c(Nc2ncnc3c2cnn3C)c(C)c1 3.4%
Cc1ccc(NC(=O)CCc2c(C)nc3c(-c4ccc(F)cc4)c(C)nn3c2C)cc1F -2.77%
Cc1nn(CC(=O)NC2CCC(C)CC2)c(=O)c2c1sc1ccccc12 (configuration not stated) 8.6%
COc1cc(NC(=O)CN2CCN(c3ccc(F)cc3)CC2)cc(OC)c1 3.08%
COC(=O)N1CCCc2cc(S(=O)(=O)NCc3ccccc3)ccc21 0.437%
CCOc1ccc(NC(=O)c2sc3nc4n(c(=O)c3c2C)CCC4)cc1 7.47%
COc1ccc(C2CC(=O)Nc3c2c(=O)[nH]c2nc4ccccc4n32)cc1 (configuration not stated) 5.39%
COc1ccc(-c2nn3c(=O)cc(CN4CCN(C(=O)/C=C/c5ccccc5)CC4)nc3s2)cc1 7.01%
CCOc1cc(-c2ccc(OC(=O)c3ccccc3Cl)c(OC)c2)cc(=O)c2c(C)oc(C)c12 -4.96%
Cc1cccc(C)c1NC(=O)c1ccc2c(c1)nnn2C1CCCC1 -24.9%
CC(=O)c1ccc(N2CCN(S(=O)(=O)c3ccc(-c4coc(C)n4)cc3)CC2)cc1 -7.65%
COc1ccccc1N1CCN(C(=O)Cn2c(=O)n3nc(-c4cccc(F)c4)nc3c3ccccc32)CC1 -0.0365%
Cc1ccccc1COC(=O)c1nn(-c2ccccc2)nc1N 14.8%
CCNC(=O)c1ccc(NC(=O)N2CCCCc3ccccc32)cc1 13.1%
CCCCN(CC)CCNC(=O)C1CCN(S(=O)(=O)c2cccc3nsnc23)CC1 25.2%
Cc1cc(C)cc(NC(=O)CSc2nc3c(c(=O)[nH]2)CN(Cc2ccc(F)cc2)CC3)c1 20.1%
O=C(CCn1c(=O)c2cccn2c2cccnc21)N1CCN(c2ccccc2)CC1 -19.3%
Cn1c(=O)oc2cc(S(=O)(=O)CCC(=O)N3CCN(c4ccccc4F)CC3)ccc21 -4.85%
CCN(C(=O)C1CCN(S(=O)(=O)c2cc(Br)cc3c2N(C(C)=O)CC3)CC1)c1cccc(C)c1 4.2%
O=C(CSc1nccn1-c1cccc(Cl)c1)Nc1ccc2c(c1)OCO2 -5.84%
CCC(=O)C1=C(c2ccc(F)cc2)N(C(=O)CC)n2c(nnc2-c2ccc(OC)cc2)S1 1.86%
CC(CCc1ccccc1)NC(=O)Cn1ncc2c3ccccc3n(Cc3ccccc3F)c2c1=O (configuration not stated) 4.55%
CCc1nn(CC(=O)N2CCN(c3ccc(OC)cc3)CC2)c(=O)c2cc3sccc3n12 -2.9%
CCc1ccc(CSc2nc(-c3ccccc3F)nc3c2Cc2c(CO)cnc(C)c2O3)cc1 15.9%
O=C(CSc1nc(=O)[nH]c2c1CCC2)NCc1ccccc1Cl -8.58%
Cc1nc2ccccc2c(=O)n1-c1ccc(NC(=O)c2ccccc2[N+](=O)[O-])cc1 2.23%
CCN(Cc1ccccc1)C(=O)Cn1c(=O)n(-c2ccccc2)c(=O)c2c1c1cc(C)ccc1n2C 2.45%
CCC(=O)NNc1ncnc2c1cnn2-c1ccc(C)c(Cl)c1 -8.31%
Cc1ccc(-c2cc(C(=O)Oc3ccc(C#N)cc3)no2)cc1 1.86%
Cc1ccc(NC(=O)Cn2c(=O)n(Cc3ccco3)c(=O)c3oc4ccccc4c32)cc1C 5.06%
COc1ccc(OC(=O)c2nc(SCc3ccccc3F)ncc2Cl)cc1 -3.01%
Cc1cccc(CNC(=O)C2CCC(CNS(=O)(=O)c3ccc4c(c3)CCCC(=O)N4)CC2)c1 (configuration not stated) 0.705%
O=C(Nc1ccc2nc(SCC(=O)N3CCOCC3)sc2c1)c1cccc(Br)c1 12.9%
Cc1cccc(CN2C(=O)c3ccccc3Sc3ccc(C(=O)NC4CCCCC4)cc32)c1 -5.74%
O=C(NCc1c(-n2cccc2)sc2c1CCCC2)Nc1cccc(C(F)(F)F)c1 -9.12%
CCC(C)n1c(SCC(=O)Nc2ccccc2C(=O)OC)nc2ccsc2c1=O (configuration not stated) -7.84%
Cc1cc(Nc2ccccc2C)c2cccc(C)c2n1 -3.92%
COCCCN1CCC(NC(=O)c2cc(Cl)c(N)c3c2OCC3)CC1 -13.3%
Cc1ccc(Cl)c2sc(NC(=O)c3ccc(S(=O)(=O)N4CCCC4)cc3)nc12 -4.06%
COc1cccc(CNC(=O)c2cccc(N3CCCS3(=O)=O)c2)c1 0.987%
CCOc1ccc(C(=O)N2CC(=O)Nc3ccc(C)cc3C2c2ccc(F)cc2)cc1OCC (configuration not stated) 5.04%
CCc1ccc(NC(=O)C2CCCN(S(=O)(=O)c3ccc4c(c3)oc(=O)n4C)C2)cc1 (configuration not stated) -4.92%
Cc1ccc(C(=O)NCC(c2ccc(Cl)cc2)N2CCCCC2)cc1 (configuration not stated) 6.41%
COCCCNC(=O)CCCn1c(SCC(=O)c2ccc(Br)cc2)nc2c(sc3ccccc32)c1=O -8.32%
CCN(CC)C(=O)c1c(NC(=O)c2ccccc2F)sc2c1CCC(C(C)(C)C)C2 (configuration not stated) 16.5%
Cc1cc2oc(C(=O)N(Cc3ccc(Cl)cc3)Cc3ccco3)c(C)c2cc1Cl -1.18%
Cc1cc(C)c(NC(=O)c2cc(C)nc3c2c(C)nn3-c2cccc(F)c2)c(C)c1 14.7%
COc1ccccc1C(=O)Nc1cccc(OCc2cc(=O)n3ccccc3n2)c1 12.8%
Cc1ccc(C)c(NC(=O)CSc2nc3ccccc3nc2N2CCOCC2)c1 0.627%
CC(C)(C)OC(=O)N1CCC(c2c(C(=O)N3CCCCC3)cnn2-c2ccc(F)cc2)CC1 -21.2%
COc1cccc(N2CCN(C(=O)c3cccn3-c3nnc(N4CCCCC4)s3)CC2)c1 -0.781%
COc1ccc(-c2cc(C(=O)Nc3ccc4c(c3)OCO4)no2)cc1 -11.2%
CCCn1c(=O)sc2cc(NC(=O)c3ccccc3Cl)ccc21 7.51%
COc1cc(NC(=O)CCn2nc(C)cc2C)cc(OC)c1OC -2%
O=C(CSc1nccn1Cc1ccc2c(c1)OCO2)Nc1ccccc1F 3.37%
CC1CCCCN1C(=O)CSc1nc(-c2ccccc2)no1 (configuration not stated) -16%
Cc1cccc(NC(=O)CSc2nc3c([nH]c4ccccc43)c(=O)n2-c2cc(C)cc(C)c2)c1 61.8%
COc1cc(/C=C(/C#N)c2nc(-c3cc4ccccc4oc3=O)cs2)ccc1O 1.59%
CCOC(=O)C1=C(CN2CCC(C)CC2)NC(=O)NC1c1ccc(OC(C)C)cc1 (configuration not stated) 2.46%
COc1ccc(Br)cc1CNC(=O)Cn1nc(C)n2c(cc3cc(F)ccc32)c1=O 4.05%
CCOC(=O)c1ccccc1NC(=O)CSc1nc(=O)[nH]c2c1CCCC2 -10.1%
CSc1cccc(-n2nnc(-c3nsc(NC(=O)c4cccs4)n3)c2C)c1 -2.99%
Cc1cc(=O)n(CC(=O)N2CCCCC2)c2c1c(C)nn2C -0.582%
COc1ccc(Nc2nc3c(S(=O)(=O)c4ccccc4)nnn3c3ccc(Cl)cc23)cc1 1.48%
COc1cccc(CNC(=O)Cn2c(=O)ccc3cc(S(=O)(=O)N4CCCC4)ccc32)c1 4.3%
CCc1ccc(S(=O)(=O)c2nnn3c2nc(N(C)Cc2ccccc2)c2cc(Cl)ccc23)cc1 9.43%
COc1ccc(-n2c(C)nc3c(cnn3-c3ccc(C)c(C)c3)c2=O)cc1Cl -2.83%
CCc1ccc2occ(CC(=O)N(Cc3ccccc3)C3CCS(=O)(=O)C3)c2c1 (configuration not stated) 1.56%
O=S(=O)(NCCS(=O)(=O)N1CCN(c2ccccc2)CC1)c1ccccc1 -16.6%
CN(C1CCCCC1)S(=O)(=O)c1ccc2c(c1)c(=O)c(C(=O)N1CCN(c3ccccc3)CC1)cn2C 9.88%
O=C(O)c1ccc(NC(=O)c2ccc(Cl)c(S(=O)(=O)N3CCCCCC3)c2)cc1 0.627%
COc1ccc(CCNC(=O)c2ccc3c(c2)nc(C)n3-c2ccc(Br)cc2)cc1OC -1.85%
Cc1ccccc1NC(=O)c1cc2c([nH]c1=O)CC(C)(C)CC2=O 2.64%
O=C(Nc1ccc(Cl)cc1Cl)c1cc(S(=O)(=O)NCc2ccc3c(c2)OCO3)ccc1F -3.69%
Cc1ccc(Cn2c(CO)cnc2SCc2ccc(F)cc2)cc1 1.31%

outcome, inactive:
Cc1ccc2oc(-c3ccc(NC(=O)CCC(=O)O)cc3)nc2c1
O=C(/C=C/c1ccccc1Cl)N1CCC(c2nc3ccccc3o2)CC1
CCn1cc(C(=O)Nc2cccc(Cl)c2)c2cc(OC)c(OC)cc2c1=O
COc1ccc(-c2cnc(C)o2)cc1S(=O)(=O)Nc1ccc(NC(C)=O)cc1
CCn1c(SCC(=O)Nc2ccccc2C(=O)OC)nc2ccsc2c1=O
CCc1ccc(-c2nn(-c3ccc(OC)cc3)c3c2cnc2ccc(OC)cc23)cc1
COC(=O)c1ccc(NC(=O)c2cnn(-c3ccc(Cl)cc3)c2C2CCN(C(=O)OC(C)(C)C)CC2)cc1
CCc1nn(CC(=O)NCCc2ccc(Cl)cc2)c(=O)c2cc3c(OC)cccc3n12
CCSc1ccccc1C(=O)N1CCN(c2nc3ccccc3s2)CC1
COc1cccc(NC(=O)c2oc3ccc(S(=O)(=O)N(C)C4CCCCC4)cc3c2C)c1
CCC1CCCCN1CCCNC(=O)c1cn(C)c2ccc(S(=O)(=O)N(C)C3CCCCC3)cc2c1=O (configuration not stated)
Cc1c(Cl)cccc1NC(=O)Nc1c[nH]c(=O)[nH]c1=O
CCN(CC)CCCNC(=O)c1cn(CC)c2ccc(S(=O)(=O)N3CCC(C)CC3)cc2c1=O
CCS(=O)(=O)N1CCCc2cc(C(=O)Nc3cc([N+](=O)[O-])ccc3C)ccc21
Cc1ccc(NC(=O)CN2C(=O)C(c3ccccc3)=NC23CCCCC3)cc1C
COC(=O)c1ccc(NC(=O)C(C)Sc2nc(=O)cc(N)n2CCc2ccccc2)cc1 (configuration not stated)
Cc1ccc(NC(=O)CN2C(=O)CCSc3ccccc32)c(C)c1
Cc1nc2c3ccccc3nc(NNC(=O)CCC(=O)O)n2n1
CN(C)c1ccc(CNC(=O)C2CCN(c3nnc(-n4cccc4)s3)CC2)cc1
